± gives the standard deviation of the averaged measurements. Restriction of a single-cycle SIVsab GFP reporter by TRIM5α v1-loop variants in CRFK cells. Human variants: read share among cells still uninfected after two challenges over input, higher = gained restriction. Rhesus variants: share among infected cells over input, higher = lost restriction. Reporter dose not given per row. No active / inactive call per row; the paper calls a change when both replicates lie above its controls (mean + 2 SD of stop or wild-type variants, or the top frameshift score). Residues outside the varied loop are taken from Swiss-Prot. The paper reads the human single-substitution scores as noise; they and the rhesus combinations repeat poorly (rank correlation 0.3 to 0.4), indel scores repeat only for the top variants, rhesus substitutions well (0.9).
tested on: SIVsab (simian immunodeficiency virus of sabaeus monkeys), single-cycle GFP reporter, in CRFK cells; assay: enrichment among infected cells over input (fold); higher = weaker restriction; details: library: human / rhesus combinations
Method: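 Pools of CRFK cells expressing variants of the TRIM5α v1 loop were challenged with the single-cycle reporter, sorted by GFP and sequenced; mean of two replicates.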

| Sequence | enrichment |
| --- | --- |
| MASGILLNVKEEVTCPICLELLTEPLSLHCGHSFCQACITANHKKSMLYKEGERSCPVCRISYQPENIQPNRHVANIVEKLREVKLSPEEGQKVDHCARHGEKLLLFCQEDSKVICWLCERSQEHRGHHTFLMEEVAQEYHVKLQTALEMLRQKQQEAEKLEADIREEKASWKIQIDYDKTNVSADFEQLREILDWEESNELQNLEKEEEDILKSLTKSETEMVQQTQYMRELISELEHRLQGSMMDLLQGVDGIIKRIENMTLKKPKTFHKNQRRVFRAPDLKGMLDMFRELTDARRYWVDVTLAPNNISHAVIAEDKRQVSSRNPQIMYQAPGTLFPSFTNFNYCTGVLGSQSITSGKHYWEVDVSKKSAWILGVCAGFQSDAMYNIEQNENYQPKYGYWVIGLQEGVKYSVFQDGSSHTPFAPFIVPLSVIICPDRVGVFVDYEACTVSFFNITNHGFLIYKFSQCSFSKPVFPYLNPRKCTVPMTLCSPSS [rhesus TRIM5α, 332-344 = QAPGTLFPSFT] | 0.376 ± 0.35 |
| MASGILLNVKEEVTCPICLELLTEPLSLHCGHSFCQACITANHKKSMLYKEGERSCPVCRISYQPENIQPNRHVANIVEKLREVKLSPEEGQKVDHCARHGEKLLLFCQEDSKVICWLCERSQEHRGHHTFLMEEVAQEYHVKLQTALEMLRQKQQEAEKLEADIREEKASWKIQIDYDKTNVSADFEQLREILDWEESNELQNLEKEEEDILKSLTKSETEMVQQTQYMRELISELEHRLQGSMMDLLQGVDGIIKRIENMTLKKPKTFHKNQRRVFRAPDLKGMLDMFRELTDARRYWVDVTLAPNNISHAVIAEDKRQVSSRNPQIMYQARGTRFTFQSLVNFNYCTGVLGSQSITSGKHYWEVDVSKKSAWILGVCAGFQSDAMYNIEQNENYQPKYGYWVIGLQEGVKYSVFQDGSSHTPFAPFIVPLSVIICPDRVGVFVDYEACTVSFFNITNHGFLIYKFSQCSFSKPVFPYLNPRKCTVPMTLCSPSS [rhesus TRIM5α, 332-344 = QARGTRFTFQSLV] | 1.62 ± 0.89 |
| MASGILLNVKEEVTCPICLELLTEPLSLHCGHSFCQACITANHKKSMLYKEGERSCPVCRISYQPENIQPNRHVANIVEKLREVKLSPEEGQKVDHCARHGEKLLLFCQEDSKVICWLCERSQEHRGHHTFLMEEVAQEYHVKLQTALEMLRQKQQEAEKLEADIREEKASWKIQIDYDKTNVSADFEQLREILDWEESNELQNLEKEEEDILKSLTKSETEMVQQTQYMRELISELEHRLQGSMMDLLQGVDGIIKRIENMTLKKPKTFHKNQRRVFRAPDLKGMLDMFRELTDARRYWVDVTLAPNNISHAVIAEDKRQVSSRNPQIMYGARGTLFTFPSFVNFNYCTGVLGSQSITSGKHYWEVDVSKKSAWILGVCAGFQSDAMYNIEQNENYQPKYGYWVIGLQEGVKYSVFQDGSSHTPFAPFIVPLSVIICPDRVGVFVDYEACTVSFFNITNHGFLIYKFSQCSFSKPVFPYLNPRKCTVPMTLCSPSS [rhesus TRIM5α, 332-344 = GARGTLFTFPSFV] | 0.031 ± 0.014 |
| MASGILLNVKEEVTCPICLELLTEPLSLHCGHSFCQACITANHKKSMLYKEGERSCPVCRISYQPENIQPNRHVANIVEKLREVKLSPEEGQKVDHCARHGEKLLLFCQEDSKVICWLCERSQEHRGHHTFLMEEVAQEYHVKLQTALEMLRQKQQEAEKLEADIREEKASWKIQIDYDKTNVSADFEQLREILDWEESNELQNLEKEEEDILKSLTKSETEMVQQTQYMRELISELEHRLQGSMMDLLQGVDGIIKRIENMTLKKPKTFHKNQRRVFRAPDLKGMLDMFRELTDARRYWVDVTLAPNNISHAVIAEDKRQVSSRNPQIMYGAPGTRYTFPTFVNFNYCTGVLGSQSITSGKHYWEVDVSKKSAWILGVCAGFQSDAMYNIEQNENYQPKYGYWVIGLQEGVKYSVFQDGSSHTPFAPFIVPLSVIICPDRVGVFVDYEACTVSFFNITNHGFLIYKFSQCSFSKPVFPYLNPRKCTVPMTLCSPSS [rhesus TRIM5α, 332-344 = GAPGTRYTFPTFV] | 1.32 ± 0.29 |
| MASGILLNVKEEVTCPICLELLTEPLSLHCGHSFCQACITANHKKSMLYKEGERSCPVCRISYQPENIQPNRHVANIVEKLREVKLSPEEGQKVDHCARHGEKLLLFCQEDSKVICWLCERSQEHRGHHTFLMEEVAQEYHVKLQTALEMLRQKQQEAEKLEADIREEKASWKIQIDYDKTNVSADFEQLREILDWEESNELQNLEKEEEDILKSLTKSETEMVQQTQYMRELISELEHRLQGSMMDLLQGVDGIIKRIENMTLKKPKTFHKNQRRVFRAPDLKGMLDMFRELTDARRYWVDVTLAPNNISHAVIAEDKRQVSSRNPQIMYGAPGTRYTFQSFVNFNYCTGVLGSQSITSGKHYWEVDVSKKSAWILGVCAGFQSDAMYNIEQNENYQPKYGYWVIGLQEGVKYSVFQDGSSHTPFAPFIVPLSVIICPDRVGVFVDYEACTVSFFNITNHGFLIYKFSQCSFSKPVFPYLNPRKCTVPMTLCSPSS [rhesus TRIM5α, 332-344 = GAPGTRYTFQSFV] | 1 ± 0.22 |
| MASGILLNVKEEVTCPICLELLTEPLSLHCGHSFCQACITANHKKSMLYKEGERSCPVCRISYQPENIQPNRHVANIVEKLREVKLSPEEGQKVDHCARHGEKLLLFCQEDSKVICWLCERSQEHRGHHTFLMEEVAQEYHVKLQTALEMLRQKQQEAEKLEADIREEKASWKIQIDYDKTNVSADFEQLREILDWEESNELQNLEKEEEDILKSLTKSETEMVQQTQYMRELISELEHRLQGSMMDLLQGVDGIIKRIENMTLKKPKTFHKNQRRVFRAPDLKGMLDMFRELTDARRYWVDVTLAPNNISHAVIAEDKRQVSSRNPQIMYGARGTRFPSLVNFNYCTGVLGSQSITSGKHYWEVDVSKKSAWILGVCAGFQSDAMYNIEQNENYQPKYGYWVIGLQEGVKYSVFQDGSSHTPFAPFIVPLSVIICPDRVGVFVDYEACTVSFFNITNHGFLIYKFSQCSFSKPVFPYLNPRKCTVPMTLCSPSS [rhesus TRIM5α, 332-344 = GARGTRFPSLV] | 1.56 ± 0.42 |
| MASGILLNVKEEVTCPICLELLTEPLSLHCGHSFCQACITANHKKSMLYKEGERSCPVCRISYQPENIQPNRHVANIVEKLREVKLSPEEGQKVDHCARHGEKLLLFCQEDSKVICWLCERSQEHRGHHTFLMEEVAQEYHVKLQTALEMLRQKQQEAEKLEADIREEKASWKIQIDYDKTNVSADFEQLREILDWEESNELQNLEKEEEDILKSLTKSETEMVQQTQYMRELISELEHRLQGSMMDLLQGVDGIIKRIENMTLKKPKTFHKNQRRVFRAPDLKGMLDMFRELTDARRYWVDVTLAPNNISHAVIAEDKRQVSSRNPQIMYGARGTLFTFQSLVNFNYCTGVLGSQSITSGKHYWEVDVSKKSAWILGVCAGFQSDAMYNIEQNENYQPKYGYWVIGLQEGVKYSVFQDGSSHTPFAPFIVPLSVIICPDRVGVFVDYEACTVSFFNITNHGFLIYKFSQCSFSKPVFPYLNPRKCTVPMTLCSPSS [rhesus TRIM5α, 332-344 = GARGTLFTFQSLV] | 1.04 ± 0.42 |
| MASGILLNVKEEVTCPICLELLTEPLSLHCGHSFCQACITANHKKSMLYKEGERSCPVCRISYQPENIQPNRHVANIVEKLREVKLSPEEGQKVDHCARHGEKLLLFCQEDSKVICWLCERSQEHRGHHTFLMEEVAQEYHVKLQTALEMLRQKQQEAEKLEADIREEKASWKIQIDYDKTNVSADFEQLREILDWEESNELQNLEKEEEDILKSLTKSETEMVQQTQYMRELISELEHRLQGSMMDLLQGVDGIIKRIENMTLKKPKTFHKNQRRVFRAPDLKGMLDMFRELTDARRYWVDVTLAPNNISHAVIAEDKRQVSSRNPQIMYGAPGTLFTFQTFTNFNYCTGVLGSQSITSGKHYWEVDVSKKSAWILGVCAGFQSDAMYNIEQNENYQPKYGYWVIGLQEGVKYSVFQDGSSHTPFAPFIVPLSVIICPDRVGVFVDYEACTVSFFNITNHGFLIYKFSQCSFSKPVFPYLNPRKCTVPMTLCSPSS [rhesus TRIM5α, 332-344 = GAPGTLFTFQTFT] | 1.26 ± 0.35 |

Reference: the supplement of paper PMC12230231
